Assay results taken from publication PMC11697113, “The Hsc70 system maintains the synaptic SNARE protein SNAP-25 in an assembly-competent state and delays its aggregation [image fx2.gif]” (The Journal of Biological Chemistry, 2024).

Molecular target: T1, heat shock cognate 70 (Hsc70), human constitutively expressed Hsp70, wild type (human, UniProt P11142)
T1 construct: Hsc70, the human constitutively expressed Hsp70; also called WT Hsc70; His-Hsc70 (before cleavage); source: E. coli Rosetta (DE3), purified (Ni-NTA, TEV cleavage, second Ni-NTA)
Test: fluorescence polarisation; competition followed by fluorescence anisotropy: competitor titrated 0 to 200 μM into a complex of Hsc70 (5 μM) and FITC-p5 (50 nM); 20 mM phosphate buffer pH 7.4, 100 μM MgCl2, 100 mM KCl; overnight at 4 °C
Details: both partners purified

T1 sequence (P11142 whole entry): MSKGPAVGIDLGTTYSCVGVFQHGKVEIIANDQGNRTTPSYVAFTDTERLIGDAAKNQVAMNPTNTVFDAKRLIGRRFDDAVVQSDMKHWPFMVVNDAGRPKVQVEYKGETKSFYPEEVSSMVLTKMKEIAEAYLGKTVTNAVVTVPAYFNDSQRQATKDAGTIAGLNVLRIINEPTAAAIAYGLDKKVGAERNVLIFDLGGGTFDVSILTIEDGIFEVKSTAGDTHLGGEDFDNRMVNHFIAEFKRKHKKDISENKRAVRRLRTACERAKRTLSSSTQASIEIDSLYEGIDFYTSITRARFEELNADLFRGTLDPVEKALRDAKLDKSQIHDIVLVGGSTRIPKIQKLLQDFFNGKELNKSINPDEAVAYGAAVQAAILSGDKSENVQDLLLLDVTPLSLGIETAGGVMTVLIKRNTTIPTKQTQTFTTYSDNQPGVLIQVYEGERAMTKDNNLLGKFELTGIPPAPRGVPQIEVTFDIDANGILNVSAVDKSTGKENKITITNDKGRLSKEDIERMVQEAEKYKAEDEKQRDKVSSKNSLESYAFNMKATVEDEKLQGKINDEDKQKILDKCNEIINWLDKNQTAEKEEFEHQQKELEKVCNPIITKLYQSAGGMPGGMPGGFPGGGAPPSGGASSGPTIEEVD

B1: SNAP-25 SNC fragment (SNCFR […]) (domain or fragment)
chain: not shown
notes: SNAP-25, C-terminal SNARE motif fragment, […]; plasmid from J. Rizo; source: E. coli BL21 (DE3), purified (Ni-NTA, TEV cleavage, second Ni-NTA)
- binding result: binds
